The other results are listed elsewhere or left out. The full chains were built here from the parent and the listed change. Values near 0.05 are background.
B1: TEV protease; numbered along this chain (parent)
chain: MGESLFKGPRDYNPISSSICHLTNESDGHTTSLYGIGFGPFIITNKHLFRRNNGTLVVQSLHGVFKVKDTTTLQQHLVDGRDMIIIRMPKDFPPFPQKLKFREPQREERICLVTTNFQTKSMSSMVSDTSCTFPSGDGIFWKHWIQTKDGQCGSPLVSTRDGFIVGIHSASNFTNTNNYFTSVPKNFMELLTNQEAQQWVSGWRLNADSVLWGGHKVFMVKPEEPFQPVKEATQL

Variants of: B1
Experiment: raw area under fraction-flipped curve 0-4 h after induction (AUC4h, not background-subtracted), DNA-recorder readout of cleavage of the substrate (dimensionless); higher = more cleavage of the substrate by the protease variant
Conditions: temperature: 34 °C; time window: 0-4 h after rhamnose induction
Protocol: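 In vivo DNA recorder in E. coli TOP10(DE3) ΔrhaA at 34 °C. Each TEVp single-site mutant (parent TEVp 0) is paired with a single-site variant of the 7-mer TEVs (canonical ENLYFQ|S). The substrate sits between flexible linkers in a Bxb1-sfGFP-TEVs-SsrA fusion, so cleavage stabilises Bxb1 and speeds flipping of a recombination array, read by NGS. The value is the raw area under the fraction-flipped curve over 0-4 h after rhamnose induction (AUC4h), with ≥20 reads per time point. It is not background-subtracted; inactive controls average about 0.047.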
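Note: Bxb1 expression induced with 0.2% (w/v) L-rhamnose at OD600 near 0.5, cultures sampled hourly, flipped fraction per protease–substrate barcode pair counted by paired-end Illumina sequencing.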

Variant | area with substrate CNLYFQS | area with substrate DNLYFQS | area with substrate HNLYFQS | area with substrate SNLYFQS | area with substrate WNLYFQS | area with substrate INLYFQS | area with substrate KNLYFQS | area with substrate LNLYFQS | area with substrate PNLYFQS | area with substrate TNLYFQS | area with substrate YNLYFQS | area with substrate FNLYFQS | area with substrate GNLYFQS | area with substrate MNLYFQS | area with substrate RNLYFQS | area with substrate VNLYFQS | area with substrate NNLYFQS | area with substrate QNLYFQS
L235E | 0.0801 | 0.0669 | 0.0943 | 0.117 | 0.0632 | – | – | – | – | – | – | – | – | – | – | – | – | –
V229Q | 0.0782 | 0.0889 | 0.0567 | 0.0663 | 0.0547 | 0.0607 | 0.0758 | 0.0714 | 0.0661 | 0.0593 | 0.0436 | – | – | – | – | – | – | –
S4I | 0.0682 | 0.0834 | 0.0702 | 0.0798 | 0.058 | 0.0866 | – | 0.0675 | 0.0976 | – | 0.0683 | 0.0409 | 0.0674 | 0.0597 | 0.068 | 0.0772 | – | –
G39L | 0.0282 | 0.0326 | 0.0365 | 0.0628 | 0.0287 | – | 0.0386 | 0.0559 | – | 0.0338 | – | 0.0386 | 0.0434 | – | 0.0499 | – | 0.0431 | 0.036
S158Y | 0.0462 | 0.0474 | 0.0535 | 0.0537 | 0.052 | – | – | 0.0477 | 0.0725 | 0.0647 | – | 0.0399 | – | 0.0433 | – | 0.0417 | – | –
M188S | 0.0719 | 0.0772 | 0.0766 | 0.0577 | 0.0565 | 0.0715 | 0.0699 | 0.0586 | 0.0913 | 0.0656 | – | – | – | 0.0772 | – | – | – | –
K68I | 0.059 | 0.0807 | 0.063 | 0.0653 | – | 0.0802 | 0.0644 | 0.0542 | 0.0675 | 0.0837 | 0.0527 | 0.0553 | – | 0.0733 | – | – | 0.0617 | 0.0618
I43H | 0.034 | 0.0627 | 0.0451 | 0.0528 | 0.0459 | 0.0461 | 0.0491 | 0.0344 | – | 0.0479 | 0.0483 | 0.0504 | 0.082 | – | – | – | 0.058 | –
F173H | 0.0543 | 0.0652 | 0.0616 | 0.0643 | 0.0612 | 0.0659 | 0.0654 | 0.0708 | 0.0599 | 0.0597 | – | 0.0646 | 0.0711 | 0.0593 | – | 0.068 | 0.0644 | 0.0526
T147M | 0.0443 | 0.0572 | 0.0478 | – | 0.0512 | – | – | 0.0858 | 0.0649 | – | – | – | 0.0556 | – | – | – | – | –
F65N | 0.0668 | 0.0691 | – | 0.0747 | 0.0575 | 0.0337 | – | – | 0.0667 | 0.0728 | 0.0622 | 0.0671 | – | – | – | – | 0.0577 | –
V57N | 0.0785 | 0.0393 | 0.0526 | 0.0775 | 0.0568 | – | – | – | 0.057 | 0.0628 | 0.0587 | 0.0862 | 0.0527 | – | – | – | 0.086 | –
W212G | 0.0564 | 0.0622 | 0.056 | 0.0567 | 0.0663 | 0.0503 | 0.0569 | – | 0.0534 | – | – | 0.0197 | – | 0.0832 | – | 0.0666 | 0.0672 | –
V210N | 0.0571 | 0.0761 | 0.067 | – | 0.0654 | 0.0556 | – | 0.0612 | 0.058 | 0.0588 | 0.065 | – | 0.0641 | 0.0551 | – | – | 0.0565 | –
F38K | 0.0536 | 0.0454 | 0.0462 | 0.0525 | 0.0508 | 0.0474 | 0.0461 | 0.0562 | 0.0522 | 0.0554 | – | – | – | 0.0534 | – | – | – | –
